The results in this text go back to PubChem BioAssay AID493208 (National Center for Advancing Translational Sciences (NCATS), 2011).

Screen size: about 44,000 compounds; about 340 (0.77%) were called active. Roughly 5% stayed inconclusive and do not appear here. Calls come from the whole dose curve; as a rule, active = well fitted inhibition curve with a large enough effect; inconclusive = small, poorly fitted or top-dose-only effect; inactive = flat fitted curve, though single readings scatter. Some of the results follow.
Potency is the fitted concentration of half-maximal effect.

The test in a line: Acumen qHTS Assay for Inhibitors of the mTORC1 Signaling Pathway in MEF (Tsc2-/-, p53-/-) Cells: Sytravon.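 For activity change, negative = inhibition: plate controls were DMSO for no effect and rapamycin for full effect.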 Note: nearly all actives have a fitted effect of over 50% in size. To be noted: phospho-rpS6 immunofluorescence/PI, 24 h; series mostly up to 38.3 µM; activity change, negative = inhibition: at the top concentration. The method, boiled down:
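Readout is phospho-S6 Alexa 488 signal normalized to PI per well, reported as % active cells with thresholds set from rapamycin (7.5 nM) and DMSO controls. Cells: Tsc2-/-, p53-/- MEFs, 24 hrs compound at 37 C; PI cell number serves as viability.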
`Cc1ccc(-c2nnn3c2nc(N2CCC(C)CC2)c2ccccc23)cc1`: the “activity change, negative = inhibition” value is inactive: 1.98%.

Turning to `CCOc1ccc(S(=O)(=O)NCCc2csc3nc(-c4cccc(C)c4)nn23)cc1`, the “activity change, negative = inhibition” value was inactive: 0.929%.

On to `Cc1ccc(C(=O)Nc2nnc(S(=O)(=O)N3CCCc4ccccc43)s2)cc1`, for which the “activity change, negative = inhibition” value was inactive: 8.34%.

Turning to `Fc1ccc(Nc2c(-c3c[nH]c4ccccc34)nc3ccccn23)cc1`, the “activity change, negative = inhibition” value is inactive: -5.08%.

With `COc1ccc(CCNC(=O)c2ccc(CSCc3ccc(C)cc3)o2)cc1OC`, the “activity change, negative = inhibition” value is inactive: 7.97%.

With `COc1ccc(C(=O)Nc2ccc3nc(N4CCCCC4)cc(C)c3c2)cc1OC`, the Potency is active: 13.1 µM.

`Cc1cccc(CSc2ccc3nnc(CCNS(=O)(=O)c4ccccc4)n3n2)c1`: the “activity change, negative = inhibition” value was inactive: 1.1%.

As to `COCCCNC(=O)C1CCN(C(=O)c2cc3sccc3n2Cc2ccc(Cl)cc2)CC1`, the “activity change, negative = inhibition” value is inactive: 1.69%.

For the compound `O=S(=O)(c1ccc(Cl)cc1)N1CCC(c2ccncc2)CC1`, the “activity change, negative = inhibition” value was inactive: -1.09%.

For the compound `O=C(Nc1nnc(S(=O)(=O)N2CCOCC2)s1)c1cccc(Br)c1`, the “activity change, negative = inhibition” value is inactive: -3.86%.

In the case of `Cc1nc2c(C(=O)NCCc3ccccc3)c[nH]n2c(=O)c1Cc1ccccc1F`, the “activity change, negative = inhibition” value was inactive: 0.0593%.

Regarding `COc1cccc(C(=O)Nc2ccc(C(=O)OCc3cc(=O)n4cc(C)sc4n3)cc2)c1`, the “activity change, negative = inhibition” value is inactive: 2.65%.

With `COc1cc(NS(=O)(=O)c2cc3c(cc2C)n(C)c(=O)c(=O)n3C)cc(OC)c1`, the “activity change, negative = inhibition” value was inactive: -13.2%.

With `COc1cc(NC(=O)c2cc3cc4ccc(OC)c(Cl)c4nc3s2)cc(OC)c1`, the “activity change, negative = inhibition” value is inactive: -16%.

Take `COc1cc(NC(=O)NCCn2nnc3cc(S(=O)(=O)N(C)C)ccc32)cc(OC)c1OC`: the “activity change, negative = inhibition” value is inactive: 15.7%.

In the case of `Cc1ccc(-c2cc3ncc4c(n3n2)-c2ccccc2OC4)cc1`, the “activity change, negative = inhibition” value is inactive: -9.19%.

`CCC(Sc1ccc2nnc(CCNS(=O)(=O)c3ccc(OC)cc3)n2n1)C(=O)OC` (stereo not drawn): the “activity change, negative = inhibition” value was inactive: 0.126%.

With `Cc1ccccc1C(=O)NC1(C(F)(F)F)C(=O)Nc2c1c(=O)[nH]c(=O)n2CCc1ccccc1` (stereo not drawn), the “activity change, negative = inhibition” value was inactive: 0.499%.

Regarding `COc1ccc(-c2nc3c4ccccc4n(CC(=O)Nc4ccc(C(C)=O)cc4)c(=O)n3n2)cc1`, the “activity change, negative = inhibition” value was inactive: 2.06%.

Turning to `Cc1cc(C)cc(NC(=O)CSc2nc3c(cnn3-c3ccc(F)cc3)c(=O)[nH]2)c1`, the “activity change, negative = inhibition” value was inactive: -0.752%.

For `Cc1nc2ccc(S(=O)(=O)NCC(=O)Nc3ccc(C)c(Cl)c3)cc2s1`, the “activity change, negative = inhibition” value was inactive: -1.44%.

In the case of `CC1=C(c2ccc(C)c(C)c2)S(=O)(=O)N=C1N1CCC(C(=O)Nc2ccc(Cl)cc2)CC1`, the “activity change, negative = inhibition” value is inactive: 1.81%.

`CCc1nn(CC(=O)N2CCN(c3cc(C)ccc3C)CC2)c(=O)c2cc3occc3n12`: the “activity change, negative = inhibition” value was inactive: 0.904%.

Consider `COc1ccc(CCNc2nc(SCc3ccc(F)cc3)nc3ccccc23)cc1OC`, for which the “activity change, negative = inhibition” value was inactive: -12.5%.

For the compound `O=S(=O)(Nc1ccc(-c2ccc(N3CCCCCC3)nn2)cc1)c1cccc(C(F)(F)F)c1`, the “activity change, negative = inhibition” value was inactive: -0.374%.

Regarding `CCc1ccc(-c2nc(SCC(=O)NCC3CCCO3)c(-c3ccc(F)cc3)[nH]2)cc1` (stereo not drawn), the “activity change, negative = inhibition” value is inactive: 3.53%.

For `CNC(=O)c1ccc(CSc2nc3cccnc3n2Cc2cccc(F)c2)cc1`, the “activity change, negative = inhibition” value was inactive: -4.07%.

As for `N#Cc1ccc(NC(=O)c2cc(-c3cccc(Cl)c3)on2)cc1`, the “activity change, negative = inhibition” value is inactive: 4.03%.

In the case of `Fc1ccccc1N1CCN(c2ncc3c(n2)CCN(Cc2ccc(Br)s2)C3)CC1`, the “activity change, negative = inhibition” value is inactive: 3.04%.

For `Cc1ccc(C)c(NC(=O)N2CCc3cc(S(=O)(=O)N4CCC(C)CC4)ccc32)c1`, the “activity change, negative = inhibition” value was inactive: -0.418%.

Take `Cc1ccc2nc(-c3cccc(Cl)c3)c(Nc3ccc4c(c3)OCO4)n2c1`: the “activity change, negative = inhibition” value was inactive: -12.7%.

As for `C=CCc1ccccc1OCCn1c(C2CC(=O)N(Cc3ccc(F)cc3)C2)nc2ccccc21` (stereo not drawn), the “activity change, negative = inhibition” value was inactive: 2.81%.

`CC(Oc1ccccc1)C(=O)OCc1cc(=O)n2nc(C(C)C)sc2n1` (stereo not drawn): the “activity change, negative = inhibition” value is inactive: -8.35%.

Consider `COc1ccccc1CCNC(=O)C(=O)NCC(c1cccs1)S(=O)(=O)c1ccc(F)cc1` (stereo not drawn), for which the “activity change, negative = inhibition” value was inactive: -0.78%.

In the case of `CCc1ccc(S(=O)(=O)c2nnn3c2nc(NCc2cccc(OC)c2)c2cc(Cl)ccc23)cc1`, the “activity change, negative = inhibition” value is inactive: 1.26%.

Turning to `O=C(Nc1cccc(-c2nc3ccccc3[nH]2)c1)c1ccccc1F`, the “activity change, negative = inhibition” value is inactive: 3.53%.

With `Cc1ccsc1CN(C(=O)c1ccc(Br)cc1)C1CCS(=O)(=O)C1` (stereo not drawn), the “activity change, negative = inhibition” value was inactive: 3.24%.

For the compound `COc1ccccc1CNC(=O)c1ccc2c(c1)nnn2C1CCCC1`, the “activity change, negative = inhibition” value was inactive: 4.02%.

As to `Cc1ccc(NC(=O)N2CCN3CCCCC3C2)cc1F` (stereo not drawn), the “activity change, negative = inhibition” value was inactive: 2.36%.

`COc1ccccc1NC(=O)Cn1cc(C(=O)c2ccncc2)c(=O)c2cc(C)ccc21`: the “activity change, negative = inhibition” value is inactive: 0%.

On to `COc1ccc(Cl)cc1NC(=O)C1CCN(S(=O)(=O)c2ccc3c(c2)CCCN3C(=O)C2CCC2)CC1`, for which the “activity change, negative = inhibition” value was inactive: -2.34%.

In the case of `Cc1cc(=O)[nH]c2nnc(SCC(=O)Nc3ccc(F)cc3F)n12`, the “activity change, negative = inhibition” value was inactive: 1.97%.

Take `COc1ccc(NC(=O)c2cc(S(=O)(=O)N3CCCCC3)cn2C)cc1Cl`: the “activity change, negative = inhibition” value was inactive: -0.646%.

Take `O=C(Nc1ccc(S(=O)(=O)N2CCCCC2c2cccnc2)cc1)c1ccc(F)cc1` (stereo not drawn): the “activity change, negative = inhibition” value is inactive: -2.69%.

Take `CCc1nnc2c3ccccc3nc(Nc3ccc(F)c(Cl)c3)n12`: the “activity change, negative = inhibition” value is inactive: -6.21%.

`CCCC(CCC)C(=O)Nc1nnc2n1CCS2`: the “activity change, negative = inhibition” value was inactive: -1.86%.

Consider `CN(C)c1ccc(-c2noc(C3CC(=O)N(c4ccc5c(c4)OCCO5)C3)n2)cc1` (stereo not drawn), for which the “activity change, negative = inhibition” value is inactive: -12.6%.

For `Cc1cccc(N(C)C(=O)c2cc(S(=O)(=O)N3CCCCC3)c[nH]2)c1`, the “activity change, negative = inhibition” value is inactive: 0.955%.
